Experimental data as given in PMC4336329 (PLoS ONE, 2015).
Among all 310,000 compounds or so, about 2,200 (0.71%) showed an effect of 50% or more. Effects have a minus sign here. Some of the results follow.

target: human ether-à-go-go-related gene (hERG) potassium channel (human, UniProt Q12809); assay: primary screen, population patch clamp on CHO cells stably expressing hERG
Sequence (Q12809 whole entry, looked up): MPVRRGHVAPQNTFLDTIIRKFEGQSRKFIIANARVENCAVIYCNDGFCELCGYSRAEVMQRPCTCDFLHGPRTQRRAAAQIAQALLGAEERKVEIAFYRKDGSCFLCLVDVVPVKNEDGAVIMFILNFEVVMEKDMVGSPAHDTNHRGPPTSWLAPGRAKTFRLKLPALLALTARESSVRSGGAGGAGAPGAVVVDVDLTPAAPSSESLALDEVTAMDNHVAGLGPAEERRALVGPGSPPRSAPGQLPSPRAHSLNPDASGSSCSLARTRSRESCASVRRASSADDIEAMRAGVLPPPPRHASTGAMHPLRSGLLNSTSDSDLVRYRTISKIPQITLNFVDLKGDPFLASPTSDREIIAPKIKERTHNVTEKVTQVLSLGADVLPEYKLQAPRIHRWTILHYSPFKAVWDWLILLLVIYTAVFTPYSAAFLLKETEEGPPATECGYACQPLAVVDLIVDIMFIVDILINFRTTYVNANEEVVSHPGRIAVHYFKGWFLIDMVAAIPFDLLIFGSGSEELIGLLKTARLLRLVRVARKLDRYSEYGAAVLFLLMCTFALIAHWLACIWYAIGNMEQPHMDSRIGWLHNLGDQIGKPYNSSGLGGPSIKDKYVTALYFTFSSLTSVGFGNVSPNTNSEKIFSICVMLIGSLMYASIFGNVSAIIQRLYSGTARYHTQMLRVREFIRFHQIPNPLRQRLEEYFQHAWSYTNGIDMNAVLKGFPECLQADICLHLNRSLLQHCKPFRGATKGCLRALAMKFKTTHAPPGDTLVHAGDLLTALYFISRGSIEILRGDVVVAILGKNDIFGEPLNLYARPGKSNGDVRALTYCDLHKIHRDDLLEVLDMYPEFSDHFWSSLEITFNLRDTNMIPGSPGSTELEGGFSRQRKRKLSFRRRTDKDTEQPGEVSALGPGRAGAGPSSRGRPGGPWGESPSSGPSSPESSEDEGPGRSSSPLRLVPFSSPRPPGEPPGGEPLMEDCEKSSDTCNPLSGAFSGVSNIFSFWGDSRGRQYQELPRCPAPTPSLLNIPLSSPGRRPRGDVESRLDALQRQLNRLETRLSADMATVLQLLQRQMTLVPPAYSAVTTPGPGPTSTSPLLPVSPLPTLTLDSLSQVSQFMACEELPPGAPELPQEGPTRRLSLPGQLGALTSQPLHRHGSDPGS

Compound | hERG current change (%, negative = inhibition) at 1uM [%]
CN(C)S(=O)(=O)c1ccc(C(=O)NCc2nnc(SCC(=O)NCc3ccco3)o2)cc1 | 10.3
CSc1nc(-c2ccccc2)c2cc(Cl)ccc2n1 | 17.1
CCN(CC)CC#CCC(C)(c1ccccc1)c1ccccc1.Cl | -13.7
O=[N+]([O-])c1cccc(N/N=C/c2ccc(N3CCOCC3)cc2)c1 | 12.4
O=C(CCCN1C(=O)c2cccc3cccc(c23)C1=O)NC1CCS(=O)(=O)C1 (stereo not drawn) | 23.1
Cc1sc2nc(CN(Cc3cccs3)C(=O)C3CC3)[nH]c(=O)c2c1C | 3.78
CCOC(=O)c1c(NC(=O)CSc2nncs2)sc(C)c1C | 17.3
COc1cc2[nH]c(=S)n(Cc3ccc(C)o3)c(=O)c2cc1OC | 2.05
CC(C)NCC(O)COc1ccc(CC(N)=O)cc1 (stereo not drawn) | 14.4
O=C(Nc1ccc(N2CCOCC2)cc1)c1ccc(S(=O)(=O)NCc2ccco2)cc1 | 12.5
O=C(CC1NCCN(Cc2ccccc2)C1=O)Nc1ccc(Cl)cc1 (stereo not drawn) | 11.7
COc1cccc(CN2CC(C(=O)NCCN3CCOC3=O)CCC2=O)c1 (stereo not drawn) | 5.89
CCOc1ccc(-c2c(C(=O)N/N=C/c3ccc(C)s3)nnn2-c2nonc2N)cc1 | 9.41
COC(=O)CN1C(=S)N(c2ccc(OC)cc2)C(=O)C1CC(=O)Nc1ccc(F)cc1 (stereo not drawn) | 8.67
C[C@H]1CN=C(N(C)C)N1CCc1ccccc1 | 14.6
CCOC(=O)C1=C(C)Nc2ccccc2N/C1=N\S(=O)(=O)c1cc(C(=O)O)ccc1Cl | 12.9
O=C(CSc1nccn1-c1ccc(F)cc1)NCc1ccc(F)cc1 | -4.87
Cc1cc(C(=O)O)ccc1-c1ccc(/C=N/n2cnnc2)o1 | 12.6
O=C(c1ccco1)N1CCN(C(=O)c2cc3ccccc3oc2=O)CC1 | -2.46
Cc1nonc1-c1nc(-c2nonc2N)n[nH]1 | 5.6
COc1ccccc1NS(=O)(=O)c1ccc2oc(=O)ccc2c1 | 14.1
CCC(=O)C1=C(O)C(c2cccc(Oc3ccccc3)c2)CCC1=O (stereo not drawn) | -3.24
Cc1nc(-c2nc(-c3c(C(=O)NNC(=O)Nc4cccc(Cl)c4)noc3C)cs2)cs1 | 9.91

Compound | hERG current change (%, negative = inhibition) at 1uM [%]
CCN(CC)S(=O)(=O)c1ccc(C)c(C(=O)Oc2cccc(-c3cnc4ccccc4n3)c2)c1 | 17
Cc1cc(=O)oc(C)c1C(=O)NCC1COc2ccccc2O1 (stereo not drawn) | 12.7
O=C(c1ccc(Cl)cc1)N1CCC(N2CCC(C(=O)N3CCOCC3)CC2)CC1 | -7.04
CC(C)(C)NC(=O)C(c1ccncc1)N(C(=O)Cn1nnc(-c2ccc(F)cc2)n1)c1ccc(F)cc1 (stereo not drawn) | 10.5
CCOc1ccc(C(C)NC(=O)Cc2ccccc2F)cc1OCC (stereo not drawn) | 10.3
c1ccc(-c2nc(-c3ccncc3)n[nH]2)nc1 | 3.47
COc1ccc(-c2nn(Cc3ccccc3)cc2C(=O)N2CCN(c3ncccn3)CC2)cc1OC | -6.93
C=CCNC(=O)c1c(-c2c(F)cccc2Cl)noc1C | 5.24
COc1cccc(CNC(=O)Cn2c(=O)n(CCC(=O)N3CCCCC3)c(=O)c3sccc32)c1 | 15.3
CCN(Cc1cnn(C)c1)C(=O)c1cc(COc2cc(C)c(Cl)c(C)c2)on1 | -5.2
O=C(c1ccccc1)c1c(O)nc(-c2ccccc2)n(-c2ccccc2)c1=O | 16.7
CCCCc1nc2sc3c(SCC(=O)NCc4ccco4)ncnc3c2c2c1CCC2 | 15.6
O=C(Nc1ccccc1)N1CCc2ccccc2C1 | 17.7
CCOc1cc(NC(=S)NCC2CCCO2)c(OCC)cc1NC(=O)CC (stereo not drawn) | -6.14
Nc1cc(N2CCCC2)ccc1[N+](=O)[O-] | 13
FC(F)(F)c1ccc(-c2nc(=S)[nH][nH]2)cc1 | 23.9
COc1ccc(S(=O)(=O)N(Cc2cccs2)C2CCCC2)cc1 | 6.03
CC1(C)CC(NC(=S)NCc2ccc3c(c2)OCO3)CC(C)(C)N1 | 15
Cc1ccc(OCCC(=O)OCC(=O)N2CCN(S(=O)(=O)c3ccc(C)cc3C)CC2)cc1 | 14.7
N#CC1(NC(=O)CN2CCc3ccccc3C2)CCCC1 | 15.3
NC(CC(=O)O)C1CCCCC1 (stereo not drawn) | 18.5
CSC1=N/C(=C/c2cccnc2)C(=O)N1Cc1ccccc1 | 3.96
Cc1ccc(-c2cc(C(=O)N3CCOCC3)no2)cc1 | -0.161

Compound | hERG current change (%, negative = inhibition) at 1uM [%]
O=S(=O)(c1ccc2c(c1)OCCO2)N1CCN(Cc2ccccc2)CC1 | 10.2
COc1ccc(C(=O)c2ccc(Cl)c([N+](=O)[O-])c2)cc1 | 14.2
O=C(NCC1CCCO1)c1ccccc1-c1nc(-c2ccc(F)cc2)no1 (stereo not drawn) | -3.92
C=CCc1c(C)nn(CC(=O)O)c1-c1ccccc1 | 12
COCCn1nnnc1C(c1cc(OC)ccc1OC)N1CCc2ccccc2C1.Cl (stereo not drawn) | 13.6
Cc1ccn(CC(=O)NC2CCCN(Cc3ccc(CC(C)C)cc3)C2)n1 (stereo not drawn) | -9.35
C=CCOC(=O)C1=C(C)NC(=O)NC1c1ccc(OCC)cc1 (stereo not drawn) | 7.86
CN(C)CCCCNCCCNC(=O)/C=N\O | 21.7
CCOc1cc(N2CCOCC2)c(OCC)cc1NC(=O)c1ccc(NC(C)=O)cc1 | 9.3
COc1ccc(C#Cc2ccc3c(=O)c4ccccc4n(C)c3c2)cc1 | 16.1
CC1CN(C(=O)c2cccc(S(=O)(=O)Nc3ccc(Cl)cc3)c2)CC(C)O1 (stereo not drawn) | 17.9
CCOC(=O)c1[nH]c2ccc(Cl)cc2c1-c1ccccc1 | 20.4
CCCC(NC(=O)C(C)Sc1nnnn1C1CC1)c1ccccc1 (stereo not drawn) | 15.2
CCC(CC)NC(=O)CCc1nc2ccccc2c(=O)[nH]1 | 20.9
COc1cccc(Nc2ccc(Nc3cccc(OC)c3)nn2)c1 | 10.7
CCOc1ccc(S(=O)(=O)NCCC(=O)N(C)Cc2cccs2)cc1 | -1.83
Cc1nn(C)c(=S)n1-c1ccc(Cl)cc1 | 7.75
Cc1ccccc1N(CC(=O)N1CCc2ccccc2C1)S(C)(=O)=O | 13.8
CC(=O)c1ccc(N2CCN(C(=O)Nc3ccc(C(C)C)cc3)CC2)cc1 | -3.02
CCOC(=O)C(=O)N(Nc1ccccc1C)c1ccccc1C | 8.65
CCCc1cc(=O)oc2cc(C)cc(OCC(=O)N3CCC(C(=O)O)CC3)c12 | 8.73
CC1(C)CC(=O)C2=C(C1)OC(c1cccs1)C(C#N)=C2N (stereo not drawn) | -0.224
COc1ccc(OCCn2cnc(Cl)c2Cl)cc1 | 7.81

Compound | hERG current change (%, negative = inhibition) at 1uM [%]
CC(=O)Nc1ccc(C(=O)Nc2ccc(S(=O)(=O)NCC3CCCO3)cc2)cc1 (stereo not drawn) | 11.5
N#CCOC(=O)C1CSC2(c3ccc(Br)cc3)CCC(=O)N12 (stereo not drawn) | 12.3
O=C(NCCC1CCCCN1S(=O)(=O)c1ccc(F)cc1)C(=O)NCc1cccnc1 (stereo not drawn) | 1.77
COc1cc2cc(CN(Cc3cccs3)C(=S)Nc3ccc(C)cc3)c(=O)[nH]c2cc1OC | 20.3
O=c1c(-c2ccc(Br)cc2)coc2c(CN3CCOCC3)c(O)ccc12 | -12.4
COc1ccccc1C(NC(C)=O)c1c(O)ccc2ccc(O)cc12 (stereo not drawn) | 7.65
O=C(CSc1cn(Cc2ccccc2)c2ccccc12)NCc1ccc(F)cc1 | 13.7
CCOc1ccc(CCNC(=O)COC(=O)c2cccc(N(C)C)c2)cc1OCC | 8.94
O=C(CCN1C(=O)/C(=C/c2ccc(F)cc2)SC1=S)NCCc1cnc[nH]1 | 8.54
CC(C)(C)[C@H]1CCC(=O)N([C@H](CN=[N+]=[N-])Cc2ccccc2)CC1 | 5.7
Cc1ccc2nc(NC(=O)c3ccc(N4C(=O)CCC4=O)cc3)sc2c1 | 17.4
Cc1cccc(C)c1NC(=O)CNC(=O)Cc1ccccc1[N+](=O)[O-] | 20.5
Cc1nn2c(-c3ccc(S(=O)(=O)N4CCN(C)CC4)o3)nnc2c2ccccc12 | 11.9
Cc1ccc(C)c(NS(=O)(=O)c2cc3c4c(c2)CC(=O)N4CCC3)c1 | 13.6
Cc1ccc(S(=O)(=O)N2CCOCC2)cc1C(=O)N1CC(C)OC(C)C1 (stereo not drawn) | 6.53
CCCCCC(=O)Nc1ccc(N2CCN(CC)CC2)c(Cl)c1 | -55.6
CCCN1CCN(C(=S)Nc2ccc([N+](=O)[O-])cc2)CC1 | -11
Cc1cc(C)cc(C(=O)/C=C2\NC(=O)CS2)c1 | -0.786
CCN1CCCC1CNC(=O)CSCc1nc(-c2ccccc2C)oc1C (stereo not drawn) | -4.1
COc1ccc(N2C(=O)CC(Cc3ccccc3)C2=O)cc1 (stereo not drawn) | 20.4
O=C(C1CCCCC1)N1CCN=C1SCc1cccnc1 | 2.4
